The values that follow come from the supplement of paper PMC4604168 (melanoma cell lines).

What all share (test): cell count relative to DMSO control; melanoma cells; higher = more viable cells
What all share (details): library dose: low library concentration; 72 h

Assay [1] deals with MZ2-MEL.
Assay [2] concerns MeWo.
The subject of assay [3] is RPMI7951.
For assay [4], the system named is RVH-421.
Assay [5] has as its system SkMel28.
In assay [6] the test system is SkMel2.
The test system of assay [7] is SkMel30.
Assay [8] relates to UACC62.

The other results are listed elsewhere or left out. Many values rest on one well or one pass, so single values are uncertain.
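Further: cell number obtained by counting DAPI-stained nuclei in high-throughput microscope images with image analysis software, screen run in 1,536-well plates.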

As for `CCN(CC)CCNC(=O)c1c(C)[nH]c(/C=C2\C(=O)Nc3ccc(F)cc32)c1C` [sunitinib] + COc1ccc(Cl)c(Nc2nc3ccccc3nc2NS(=O)(=O)c2cccc(NC(=O)C(C)(C)N)c2)c1 [XL147] (first compound 0.4 µM, partner dose 0.8 µM), the cell count in assay [1] is 101%; in assay [2], 89%; in assay [3], 100%; in assay [4], 127%; in assay [5], 91.6%; in assay [6] it was 127%. The cell count in assay [7] turned out to be 77.9%; in assay [8] it was 85.7%.
Take `COc1cc([C@@H]2c3cc4c(cc3[C@@H](O[C@@H]3O[C@@H]5CO[C@@H](C)O[C@H]5[C@H](O)[C@H]3O)[C@H]3COC(=O)[C@H]23)OCO4)cc(OC)c1O` [etoposide] + Cc1ccc(Nc2nccc(N(C)c3ccc4c(C)n(C)nc4c3)n2)cc1S(N)(=O)=O [Pazopanib] (first compound 0.02 µM, partner dose 0.4 µM): the cell count in assay [1] was 71.1%; in assay [2], 101%; in assay [3], 99.4%; in assay [4], 96.5%; in assay [5], 99.2%; in assay [6] it was 97.1%. Besides, the results for the cell count in assay [7] and in assay [8] were 72.7% and 82.6%, respectively.
With `COc1cc([C@@H]2c3cc4c(cc3[C@@H](O[C@@H]3O[C@@H]5CO[C@@H](C)O[C@H]5[C@H](O)[C@H]3O)[C@H]3COC(=O)[C@H]23)OCO4)cc(OC)c1O` [etoposide] + Nc1cccc2c1CN(C1CCC(=O)NC1=O)C2=O [lenalidomide] (first compound 0.02 µM, partner dose 1 µM), the cell count stood at 87.9% in assay [1]; 95% in assay [2]; 87.9% in assay [3]; 78.3% in assay [4]; 86.9% in assay [5]; 90.3% in assay [6]. For the same compound, the cell count worked out at 97.6% in assay [7] and 90.9% in assay [8].
In the case of `CCN(CC)CCNC(=O)c1c(C)[nH]c(/C=C2\C(=O)Nc3ccc(F)cc32)c1C` [sunitinib] + Cn1c(Nc2ccc(C(F)(F)F)cc2)nc2cc(Oc3ccnc(-c4ncc(C(F)(F)F)[nH]4)c3)ccc21 [CHIR265] (first compound 0.4 µM, partner dose 0.08 µM), the cell count in assay [1] was found to be 86.7%; in assay [2] it was 62%; in assay [3] it was 78.4%; in assay [4], 75.4%; in assay [5] it was 59.1%; in assay [6] it was 92%. For the same compound, the cell count in assay [7] turned out to be 49.6%; in assay [8], 51.3%.
With `Cn1cnc2c(F)c(Nc3ccc(Br)cc3Cl)c(C(=O)NOCCO)cc21` [selumetinib] + NC(=O)c1ccc(N(C(N)=O)c2c(F)cccc2F)nc1-c1ccc(F)cc1F [VX702] (first compound 0.015 µM, partner dose 0.4 µM), the cell count in assay [1] amounted to 89.9%; in assay [2], 89.7%; in assay [3], 116%; in assay [4], 70.7%; in assay [5] it was 63.4%; in assay [6], 74.3%. Besides, the cell count in assay [7] was 49.2%; in assay [8], 70.4%.
Take `C[C@]1(O)C[C@@H](c2nc(-c3ccc4ccc(-c5ccccc5)nc4c3)c3c(N)nccn32)C1` + Cn1c(Nc2ccc(C(F)(F)F)cc2)nc2cc(Oc3ccnc(-c4ncc(C(F)(F)F)[nH]4)c3)ccc21 [CHIR265] (first compound 0.4 µM, partner dose 0.08 µM): the cell count is 60.5% in assay [1]; 66.2% in assay [2]; 57% in assay [3]; 78.5% in assay [4]; 60.4% in assay [5]; 63.5% in assay [6]. Also, the cell count in assay [7] came out at 57.1%; in assay [8] it was 53.4%.
With `CCN(CC)CCNC(=O)c1c(C)[nH]c(/C=C2\C(=O)Nc3ccc(F)cc32)c1C` [sunitinib] + CC(=O)O[C@@]12CO[C@@H]1C[C@H](O)[C@@]1(C)C(=O)[C@H](O)C3=C(C)[C@@H](OC(=O)[C@H](O)[C@@H](NC(=O)OC(C)(C)C)c4ccccc4)C[C@@](O)([C@@H](OC(=O)c4ccccc4)[C@H]21)C3(C)C [Docetaxel] (first compound 0.4 µM, partner dose 0.0001 µM), the cell count in assay [1] amounted to 43.4%; in assay [2] it was 48.5%; in assay [3] it was 46.1%; in assay [4], 96.4%; in assay [5] it was 56.5%; in assay [6], 47.9%. Also, the values for the cell count in assay [7] and in assay [8] were 30.5% and 55.3%, respectively.
Turning to `COc1cc([C@@H]2c3cc4c(cc3[C@@H](O[C@@H]3O[C@@H]5CO[C@@H](C)O[C@H]5[C@H](O)[C@H]3O)[C@H]3COC(=O)[C@H]23)OCO4)cc(OC)c1O` [etoposide] + C=C(c1ccc(C(=O)O)cc1)c1cc2c(cc1C)C(C)(C)CCC2(C)C [Bexarotene] (first compound 0.02 µM, partner dose 2 µM), the cell count was found to be 96.3% in assay [1]; 83.1% in assay [2]; 87.2% in assay [3]; 88.4% in assay [4]; 69.6% in assay [5]; 85.9% in assay [6]. Moreover, the cell count came to 99.8% in assay [7] and 69.7% in assay [8].
Regarding `C[C@]1(O)C[C@@H](c2nc(-c3ccc4ccc(-c5ccccc5)nc4c3)c3c(N)nccn32)C1` + Clc1ccc(Nc2nnc(Cc3ccncc3)c3ccccc23)cc1 [vatalanib] (first compound 0.4 µM, partner dose 2 µM), the cell count in assay [1] is 94.1%; in assay [2], 71.2%; in assay [3], 94.4%; in assay [4] it was 89.7%; in assay [5] it was 96%; in assay [6], 82.6%. In addition, the cell count in assay [7] turned out to be 98.9%; in assay [8], 93.4%.
In the case of `COc1cc([C@@H]2c3cc4c(cc3[C@@H](O[C@@H]3O[C@@H]5CO[C@@H](C)O[C@H]5[C@H](O)[C@H]3O)[C@H]3COC(=O)[C@H]23)OCO4)cc(OC)c1O` [etoposide] + Nc1ncn([C@H]2C[C@H](O)[C@@H](CO)O2)c(=O)n1 [decitabine] (first compound 0.02 µM, partner dose 0.1 µM), the cell count in assay [1] was determined as 84.5%; in assay [2], 100%; in assay [3], 95.8%; in assay [4], 83.9%; in assay [5] it was 102%; in assay [6], 87.8%. Also, the cell count in assay [7] came to 109%; in assay [8], 75.2%.
As for `COc1cc([C@@H]2c3cc4c(cc3[C@@H](O[C@@H]3O[C@@H]5CO[C@@H](C)O[C@H]5[C@H](O)[C@H]3O)[C@H]3COC(=O)[C@H]23)OCO4)cc(OC)c1O` [etoposide] + CS(=O)(=O)CCNCc1ccc(-c2ccc3ncnc(Nc4ccc(OCc5cccc(F)c5)c(Cl)c4)c3c2)o1 [lapatinib] (first compound 0.02 µM, partner dose 0.8 µM), the cell count in assay [1] came out at 91.6%; in assay [2] it was 91.5%; in assay [3], 88.2%; in assay [4] it was 89%; in assay [5], 80.4%; in assay [6], 94.8%. Moreover, the cell count in assay [7] turned out to be 92.5%; in assay [8], 74.5%.
Turning to `Cn1cnc2c(F)c(Nc3ccc(Br)cc3Cl)c(C(=O)NOCCO)cc21` [selumetinib] + Cc1nc(Nc2ncc(C(=O)Nc3c(C)cccc3Cl)s2)cc(N2CCN(CCO)CC2)n1 [dasatanib] (first compound 0.015 µM, partner dose 0.004 µM), the cell count in assay [1] is 67.8%; in assay [2], 74.9%; in assay [3] it was 74.8%; in assay [4], 68.8%; in assay [5], 73.8%; in assay [6] it was 78.8%. For the same compound, the cell count stood at 57.3% in assay [7] and 60.1% in assay [8].
For the compound `Cn1cnc2c(F)c(Nc3ccc(Br)cc3Cl)c(C(=O)NOCCO)cc21` [selumetinib] + Cc1cc(Nc2cc(N3CCN(C)CC3)nc(/C=C/c3ccccc3)n2)n[nH]1 [ENMD2076] (first compound 0.015 µM, partner dose 0.04 µM), the cell count in assay [1] was 86.5%; in assay [2] it was 84.5%; in assay [3] it was 102%; in assay [4], 95.2%; in assay [5], 93.5%; in assay [6], 0.251%. Also, the cell count in assay [7] is 73.2%; in assay [8], 65.5%.
Turning to `CCN(CC)CCNC(=O)c1c(C)[nH]c(/C=C2\C(=O)Nc3ccc(F)cc32)c1C` [sunitinib] + Cc1nc(Nc2ncc(C(=O)Nc3c(C)cccc3Cl)s2)cc(N2CCN(CCO)CC2)n1 [dasatanib] (first compound 0.4 µM, partner dose 0.004 µM), the cell count in assay [1] was determined as 103%; in assay [2], 65.9%; in assay [3] it was 86.6%; in assay [4] it was 84.8%; in assay [5] it was 81.5%; in assay [6], 110%. In addition, the cell count in assay [7] stood at 61.7%; in assay [8], 73.7%.
As to `COc1cc([C@@H]2c3cc4c(cc3[C@@H](O[C@@H]3O[C@@H]5CO[C@@H](C)O[C@H]5[C@H](O)[C@H]3O)[C@H]3COC(=O)[C@H]23)OCO4)cc(OC)c1O` [etoposide] + CNC(=O)c1cc(Oc2ccc(NC(=O)Nc3ccc(Cl)c(C(F)(F)F)c3)cc2)ccn1 [sorafenib] (first compound 0.02 µM, partner dose 0.4 µM), the cell count was found to be 84.8% in assay [1]; 96.6% in assay [2]; 92.1% in assay [3]; 101% in assay [4]; 94.6% in assay [5]; 121% in assay [6]. Besides, the figures for the cell count in assay [7] and in assay [8] were 109% and 106%, respectively.
For the compound `CCN(CC)CCNC(=O)c1c(C)[nH]c(/C=C2\C(=O)Nc3ccc(F)cc32)c1C` [sunitinib] + Nc1ncn([C@H]2C[C@H](O)[C@@H](CO)O2)c(=O)n1 [decitabine] (first compound 0.4 µM, partner dose 0.1 µM), the cell count is 91.9% in assay [1]; 77.9% in assay [2]; 103% in assay [3]; 91.9% in assay [4]; 80.1% in assay [5]; 114% in assay [6]. Further, the cell count in assay [7] worked out at 92.5%; in assay [8], 72.8%.
In the case of `Cn1cnc2c(F)c(Nc3ccc(Br)cc3Cl)c(C(=O)NOCCO)cc21` [selumetinib] + CC(=O)c1c(C)c2cnc(Nc3ccc(N4CCNCC4)cn3)nc2n(C2CCCC2)c1=O [palbociclib] (first compound 0.015 µM, partner dose 0.04 µM), the cell count in assay [1] is 66.6%; in assay [2] it was 73%; in assay [3] it was 67.4%; in assay [4], 68.7%; in assay [5], 81.1%; in assay [6], 64.8%. For the same compound, the cell count in assay [7] turned out to be 29.5%; in assay [8] it was 71.2%.
